According to paper PMC6919601, “Identification of Plasmodium dipeptidyl aminopeptidase allosteric inhibitors by high throughput screening” (PLoS ONE, 2019):
The campaign covered roughly 110,000 compounds. About 230 (0.21%) showed an effect of 50% or more. Some of the results follow.

The compounds below were run against DPAP1 (Plasmodium falciparum, UniProt Q8IIJ9) (assay: primary screen, percent inhibition; read by cleavage of a fluorogenic dipeptide substrate; higher = more effect of the substance).
Parameters: species or system P. falciparum D10 trophozoite lysates; single well
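Note: 30 min substrate incubation versus DMSO and 10 µM JCP410 controls.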

Chain of DPAP1 (Q8IIJ9 whole entry, looked up): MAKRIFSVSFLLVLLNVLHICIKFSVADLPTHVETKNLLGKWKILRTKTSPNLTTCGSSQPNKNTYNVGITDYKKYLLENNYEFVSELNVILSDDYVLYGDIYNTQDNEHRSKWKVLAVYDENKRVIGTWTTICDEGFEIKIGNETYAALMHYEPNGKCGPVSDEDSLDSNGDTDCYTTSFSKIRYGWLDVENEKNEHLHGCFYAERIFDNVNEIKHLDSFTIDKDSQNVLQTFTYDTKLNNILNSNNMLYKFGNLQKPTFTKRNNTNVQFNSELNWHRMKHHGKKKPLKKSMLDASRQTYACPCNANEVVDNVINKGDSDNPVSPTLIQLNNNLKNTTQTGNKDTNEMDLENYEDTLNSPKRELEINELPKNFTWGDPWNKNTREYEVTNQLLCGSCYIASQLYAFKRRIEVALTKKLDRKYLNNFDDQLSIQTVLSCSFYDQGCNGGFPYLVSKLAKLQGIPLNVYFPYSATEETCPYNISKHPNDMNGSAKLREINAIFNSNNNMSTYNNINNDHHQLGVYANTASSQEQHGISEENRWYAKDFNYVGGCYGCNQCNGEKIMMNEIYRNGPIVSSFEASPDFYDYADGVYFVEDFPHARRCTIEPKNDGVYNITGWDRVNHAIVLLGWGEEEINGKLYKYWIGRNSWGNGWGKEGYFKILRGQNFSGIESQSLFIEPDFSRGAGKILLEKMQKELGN

Structure (SMILES)	% Inhibition @ 10 uM
Cc1cccc(NC(=O)CN(CCc2ccccc2)S(C)(=O)=O)c1	-15.4%
O=C(NCc1ccccn1)c1cnn(-c2ccccc2)c1-n1cccc1	3.4%
O=C(O)C1CCCCC1C(=O)N1CCCCC1 (stereo not drawn)	4.12%
COC(=O)C1=C(O)/C(=C\c2ccccc2OC)N=C1C	-0.711%
CC1CCN(S(=O)(=O)c2ccc(NC(=O)c3ccco3)cc2)CC1	4.09%
CCc1ccc2ncc(C(=O)c3ccccc3)c(N3CCOCC3)c2c1	-7.3%
COc1cc(N)ccc1-c1ccc(N)cc1OC	-1.22%
COc1ccc(C(=O)/C=C/c2cccnc2)cc1	0.00178%
Cc1ccc(Cn2cnc3ccccc3c2=O)cc1	2.09%
O=C(Nc1ccc(Br)cn1)c1ccc(COc2ccc(Cl)cc2)o1	-1.33%
CSc1ccccc1C(=O)Nc1ccc2c(c1)OC1(CCCCC1)O2	-0.105%
CCOC(=O)c1c(C)[nH]c(C)c1S(=O)(=O)N(C)C1CCCCC1	-4.02%
CC1(C)Cc2c(sc3ncn4nc(Cc5ccccc5)nc4c23)CO1	4.58%
O=c1c2nnn(Cc3ccccc3F)c2ncn1C/C=C/c1ccccc1	1.24%
CN(Cc1ccccc1)C(=O)C(CCS(C)(=O)=O)N1Cc2ccccc2C1=O (stereo not drawn)	-2.69%
COCCN1C(=O)C(O)=C(C(=O)c2ccccc2)C1c1ccc(C(C)C)cc1 (stereo not drawn)	4.66%
O=c1/c(=C\c2ccc(F)cc2)sc2nc3ccccc3n12	4.15%
COC(=O)C1=C(C)N(C2CCCCC2)C(=O)/C1=C\c1ccc(Cl)cc1	3.43%
Cc1c(C(=O)N2CCOCC2)oc2c1-c1nn(CC(=O)NCCN(C)C)cc1CC2	0.0171%
CCN(CC)c1ccc(NC(=O)c2ccccc2NC(=O)c2ccccc2)cc1	7.48%
CCCn1c2ccccc2c2nnc(SCC(=O)Nc3nc4c(s3)CCCC4)nc21	13.1%
CC(=O)Nc1ccc(C2C3=C(Nc4nc(O)nc(O)c42)C(=O)CC(C)(C)C3)cc1 (stereo not drawn)	-4.61%
N#CC1=C(N)Oc2c(oc(CO)cc2=O)C1c1ccccc1F (stereo not drawn)	-0.968%
CCC1CCCCN1C(=O)Cn1c(SCc2ccccc2F)nc2ccncc21 (stereo not drawn)	-2.37%
CCS(=O)(=O)N1CCCC(C(=O)NCc2ccc(C)cc2)C1 (stereo not drawn)	-1.79%
CCN(CC)C(=O)C12CC3CCC(CC(C3)C1)C2	-4.23%

Structure (SMILES)	% Inhibition @ 10 uM
O=S(=O)(c1cc(Cl)ccc1Cl)N1CCc2ccccc2C1	0.215%
Cc1ccc(-c2noc(CNC(=O)c3ccc(C)cc3C)n2)cc1	-2.99%
C=CCNC(=O)c1ccc(N2C(=O)c3ccccc3C2=O)cc1	2.95%
COc1cc(OC)c(C2=NOC3C(OC)OC(OC)C23)c(OC)c1 (stereo not drawn)	0.793%
CC1CCC2C(=O)N(c3cccc(O)c3)C(=O)C2C1 (stereo not drawn)	-12.6%
Cc1ccc(C(=O)OCC(=O)c2ccccc2)cc1	-3.48%
COCCNC(=O)CSc1[nH]c(-c2ccccc2)nc1-c1ccccc1	3.48%
COc1cccc(C(=O)Nc2ccc(Br)cc2C)c1	7.44%
CCOC(=O)c1oc2ccc(S(=O)(=O)n3nc(-c4ccccc4)cc3N)cc2c1C	1.15%
CCCCN(C)C(=O)c1nn(C)c2c1CSc1ccccc1-2	17%
CC(=O)c1ccc(NC(=O)C2CCCC2)cc1	-2.98%
CCOC(=O)c1c(NC(=O)C2(C)Cc3ccccc3C(=O)O2)sc2c1CCCC2 (stereo not drawn)	-4.24%
Cc1nn(-c2ccc(F)cc2)c(-n2cccc2)c1C(=O)NCCCN1CCc2ccccc2C1	-3.72%
Cc1ccc(NC(c2ccccc2)c2ccncc2)cc1 (stereo not drawn)	8.99%
COc1ccc2c(=O)c(Oc3ccc(C(C)(C)C)cc3)coc2c1	-1.4%
COc1ccc(CNC(=O)CN(C)S(=O)(=O)c2ccc(Br)s2)cc1	-3.87%
COc1ccccc1CNC(=O)/C(C#N)=C/c1ccc(OC)c(OC)c1OC	-9.56%
COc1cccc(OC)c1C(=O)Nc1cccc2ccccc12	-0.261%
COc1ccc(/C=C2/NC(=O)N(CC(=O)Nc3cccc(C)c3)C2=O)cc1O	9.79%
CC1CCN(c2ccc3nnc(CCC(=O)NC4CCCCC4)n3n2)CC1	0.842%
CN1CCN(S(=O)(=O)c2cccnc2N2CCN(CCO)CC2)CC1	-5.13%
Clc1cccc2c(NCCCN3CCOCC3)cnnc12	0.182%
COc1ccc(Br)cc1CNc1cccc(C)c1	-1.21%
NC(=O)C1CCN(C(=O)CCc2nnc3n(Cc4ccccc4Cl)c(=O)c4ccccc4n23)CC1	-2.42%
O=C(CC1Sc2ccccc2NC1=O)Nc1ccccc1Cl (stereo not drawn)	-3.77%
CN1C(=O)C2(C(C#N)=C(N)OC3=C2C(=O)CCC3)c2cc(Br)ccc21 (stereo not drawn)	-1.84%

Structure (SMILES)	% Inhibition @ 10 uM
C/N=C1\S/C(=C\c2ccc(N3CCOCC3)c(F)c2)C(=O)N1C	-0.473%
O=C(Nc1ccc(Cl)cc1)/C(=C/c1ccc(Br)cc1)NC(=O)c1ccco1	-2.87%
COc1ccc(C2C=C(c3cccs3)Nc3nc(-c4ccccc4)cn32)cc1 (stereo not drawn)	1.02%
CCc1ccccc1N(CC(=O)Nc1ccc2c(c1)OCO2)S(=O)(=O)c1ccc(C)cc1	-4.31%
COc1ccccc1C(=O)O/N=C1/C=C(C(C)C)C(=O)C=C1C	2.95%
CC1CC(C)CN(S(=O)(=O)c2ccc3ncc(C(=O)NCCC4=CCCCC4)c(O)c3c2)C1 (stereo not drawn)	-5.03%
Cc1ccccc1Cn1nnc2sc3c(c2c1=O)CCC(C)C3 (stereo not drawn)	0.561%
Cc1cc(OCc2noc(-c3ccc(F)cc3)n2)cc(C)c1Cl	-0.946%
Cc1ccc(S(=O)(=O)c2nnn3c2nc(NCCCN2CCCC2=O)c2ccccc23)cc1	6.54%
CC(=O)N1C(=O)C2(Nc3ccccc3N2)c2ccccc21	-0.637%
CO/N=C/c1c(Sc2ccc(C)cc2)nc2ccccn2c1=O	2.09%
CC(=O)Nc1ccc(S(=O)(=O)Nc2ccc(Cl)c(Cl)c2)cc1	-4.61%
Cc1cc(C)nc(NC(=O)Nc2ccc3ccccc3c2)n1	7.03%
Cn1cc(CN2CCc3ccccc3C2)c2ccccc21	-3.78%
Cc1cc(S(=O)(=O)c2cc3cc(C(C)(C)C)cc(O)c3oc2=O)ccc1F	2.12%
CCCCS(=O)c1c(O)nc2ccccc2c1O (stereo not drawn)	-3.77%
CC(C)(C)NC(=O)Cn1cc(S(=O)(=O)Cc2cccc(Cl)c2)c2ccccc21	-3.5%
COc1cc2c(cc1OC)CN(C(=O)CSc1nnc3scc(-c4ccccc4)n13)CC2	-6.55%
CCC(C(=O)Nc1nccs1)c1ccccc1 (stereo not drawn)	2.55%
CCN(CC)CCCNCc1cccc(Br)c1	2.05%
C=CCSC1=C(C#N)C(c2ccc(C)cc2)CC(=O)N1 (stereo not drawn)	0.317%
CC(C)COc1ccc(C(=O)Nc2sc3c(c2C(=O)O)CC(C)(C)OC3)cc1	-4.72%
O=C(Cn1cnc2sc3c(c2c1=O)CCCC3)Nc1ccc(Br)cc1	-4.39%
CC(=O)Nc1nonc1N1C(=N)S/C(=C/c2ccc(-c3cccc(C(F)(F)F)c3)o2)C1=O	-3.41%
COCCCNC(=O)CCn1c(=O)c2cccn2c2cccnc21	-4.21%
Clc1ccc(-c2noc3ncnc(NCC4CCCO4)c23)cc1 (stereo not drawn)	5.77%

Structure (SMILES)	% Inhibition @ 10 uM
COc1ccccc1Cc1nn[nH]n1	-0.902%
CCC[C@H](NC(=O)C1(NC(=O)c2ccc(OC(F)(F)F)cc2)CCCCC1)C(=O)c1nnc(-c2ccc(C(F)(F)F)cc2)o1	-1.41%
CCOc1ccc(CCCN=C(N)N)cc1Cl	2.66%
O=S(=O)(c1ccccc1F)N1CCN(Cc2ccccc2)CC1	-1.61%
CCc1nnc(NC(=O)C2(C)COC(c3ccccc3)OC2)s1 (stereo not drawn)	-3.34%
CCCCNS(=O)(=O)c1ccc2nc(-c3cccnc3)cc(C(=O)NCCCOC)c2c1	-3.21%
C=CCC1(O)c2ccccc2C(=O)c2c(O)ccc(O)c21 (stereo not drawn)	-3.57%
Cc1c(Cl)c(C(F)(F)F)nn1CC(=O)NC(C)C	2.16%
N#CCNC(=O)C(CS(=O)(=O)Cc1ccccc1)c1cccc(-c2ccccc2)c1 (stereo not drawn)	-6.98%
CC(C)(C)N1C(=O)c2ccc(C(=O)Nc3ccc(C(=O)O)cc3)cc2C1=O	3.8%
CCCCNS(=O)(=O)c1cc(-c2nnc(O)c3ccccc23)ccc1C	-2.65%
COc1ccc(C)cc1N(CC(=O)NC1CC2CCC1C2)S(=O)(=O)c1ccc(C)cc1 (stereo not drawn)	1.62%
NC(=O)C1CCCN(CCc2ccccc2)C1 (stereo not drawn)	-0.0494%
Cc1onc(-c2ccccc2)c1C(=O)O	0.878%
COc1ccc(CN(C(=O)c2cccc(C)c2)C2CCS(=O)(=O)C2)cc1 (stereo not drawn)	-1.18%
CCOc1ccccc1NC(=O)c1ccccc1Br	1.35%
COc1ccc(C(=O)Nc2cccc(NC(C)=O)c2)cc1	-3.39%
COc1cc(CN(C)C)c(O)c(CN(C)C)c1	6.89%
CC(C)NC(=O)Cn1ncc2c3ccccc3nc-2c1O	-0.723%
CC(C)(C)c1ccc(/C=C2\NC(=S)NC2=O)cc1	2.05%
CN(C)C(CNS(=O)(=O)c1ccc(Cl)cc1)c1ccccc1 (stereo not drawn)	-4.29%
O=C(NCCC1=CCCCC1)c1cc(-c2ccccc2)c(N2CCOCC2)s1	0.708%
Cc1ccsc1CCNC(=O)CCc1nnc2n(CCc3ccccc3)c(=O)c3ccccc3n12	-1.8%
Cc1cc(C)n(-c2nc(-c3ccccc3)cc(-c3ccc(F)cc3)n2)n1	0.215%
